# Laboratory results as given in publication PMC10726135.
# The other results are listed elsewhere or left out. At the low end of the ranking the order means little. Measured with an extract: partners may take part in the binding.
# Molecular target: T1, HNF4alpha2 (COS-7 nuclear extract) (UniProt P41235)
# T1 sequence: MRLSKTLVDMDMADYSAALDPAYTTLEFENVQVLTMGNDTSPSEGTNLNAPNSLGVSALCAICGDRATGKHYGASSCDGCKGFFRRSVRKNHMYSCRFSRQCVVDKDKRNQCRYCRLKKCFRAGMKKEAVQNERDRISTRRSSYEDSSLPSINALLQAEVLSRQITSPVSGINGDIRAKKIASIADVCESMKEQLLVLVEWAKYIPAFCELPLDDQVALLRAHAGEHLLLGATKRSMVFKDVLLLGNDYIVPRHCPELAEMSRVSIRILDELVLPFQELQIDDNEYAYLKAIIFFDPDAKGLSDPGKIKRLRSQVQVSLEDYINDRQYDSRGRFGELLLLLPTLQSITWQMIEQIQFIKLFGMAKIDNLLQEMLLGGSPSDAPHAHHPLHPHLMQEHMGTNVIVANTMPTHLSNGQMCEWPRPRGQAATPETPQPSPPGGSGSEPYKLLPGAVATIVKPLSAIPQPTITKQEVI
# Experiment: protein-binding microarray
# Details: COS-7 nuclear extract on double-stranded Agilent 4x180k PBM; binding buffer, salt, pH and temperature not given; high values mean tight binding; double strand, one strand shown; sequences stand for … in …GCCTAGGGAGATTAGAGTATCGGTCGA
row,Sequence,binding signal (log2 normalized intensity)
1,CCTTGCCACCCACACTGCAGCAAAACTTTA,-0.723
2,CAGAAAAGGCTGTAAACTCACTCTGGGAAA,-1.18
3,TCTCATTTCTGAACACTCCAAGGTGTCCAG,0.549
4,GGGCTACCGATATGAGGCTTCCATTCTCAG,-1.11
5,TAAGTGTGGGTTTAAGTAAGCCCCCTTCCC,4.48
6,CACAATGTCAGTGAGGCCAAAAGGTGCTAC,-1.09
7,AGCCAATAGGCGAGGACGCAGTCCCGCGTG,-1.06
8,TGGACAGAAATATCAGCAAGGAAATAAAAG,-1.12
9,ACCTAGTAGGCACAAAGGTGCAAAGTACAT,4.3
10,AGTCCAGAGTTTGTGGCTCCATACTCCTTA,-0.835
11,ACACCTCTTCTTTCTTCTCTGGTACCCTGG,1.43
12,CAATTTCCAGGAGTATGTGTTTGCTTTACC,0.472
13,GCTTAAATTCTTGTATGCTTAACTATGTTT,1.35
14,CATATTTTGAAAGAAAGAGACCTTTACCCT,4.91
15,ATACAAGCTAATCTGACCAAGTGAACTGTG,1.23
16,TTCTTTGGTTGGGAATAACATTGTGTAGTT,1.81
17,CTTAGCAGGATTCTTGCTGCAGCTGGGCTA,-1.04
18,GAAGAGACAGCTGGGCCCTGCCTGACCTGC,0.813
19,CGAGCACGGTGCAGGGAGGATATCCCTCCG,-1.02
20,CTGCAAGGTTTGTGTACGGACGCATCTGTC,0.813
21,ACGCAGGGCGGCCGGCGGAGCGCCGAGCAG,-1.01
22,AACAGTGAGCCCAGTGGAGTAGGCTTTAGA,-1.05
23,TTCCCTTGGAATGCCAGATGACCTTTGCCC,9.88

row,Sequence,binding signal (log2 normalized intensity)
1,GTGGTCCTAAGACTGACCTTTGATCATTTG,8.56
2,TTTGGTGAGGCCCCAGTGTCAATTCTCATT,1.82
3,ATTGATTGGGACCTGAGAACAAACAATGGT,0.892
4,CCCATCTGGGACTTCAAAGCGCAGCGCGGG,-1.02
5,CAATCAGAAACCGGGCCAATGGGTTCCCTG,-1.1
6,CAGGTGCTGGGATGATTCCCTTATCTTCTC,0.742
7,GCCCCTGATGTGATGTAATCAAATGTACAC,2.08
8,AGTGTGACTCATCAATCTGGAATTACCTGT,0.257
9,CCGGAATTTCCTCCTGGCAGAGCATAGAAG,-1.07
10,TAGTATTGAGTTTGCTCTGCTACTAACTGC,-0.991
11,TAGGGCCACTTTGTCCTTCACTTGTAGGAG,0.555
12,ACACAGAGATCTGATCAAAGGTCATTGGTA,5.88
13,TTGTCAGTGAGGAATGTGCAAACGGCCCAG,-1.14
14,GAGCTGCTGGAACAGGCTGGGACACGCCTG,-1.16
15,CTGGCCCAGCCTGGCCTCTAGAGTGGTTGC,-1.14
16,GCAGACCCTATTGGGCTAGCCGCTCCTCCC,-0.974
17,AATGATGATGACTTTTGACCCCAGGGGAAA,5.51
18,GAATCCTCTCTTGCTCAGGTGAGGCCAGTC,-0.96
19,AGAGCAGAATCTACAAGGACCAGATTCTTA,-1.18
20,GGTCAAGGACTGTTCAGTCCCAGTATGTGC,0.851
21,GTTTTGAGATAGGGTCTTGCTTTGTCACCC,1.81
22,CCAGAGTTCAGGTAGAGGGATTCCCTGGGA,-1.07
23,GCTCCCTCCCCTCCTCCCTTGCTCACCCCA,5.91
